The supplement of paper PMC6089552
Out of some 3,200 compounds screened, about 300 (9.4%) showed activity. This is a selection; strong and weak results do not stand in their true shares.

Tested on: A673/TR/shEF
Assay: cell viability (LOESS-normalised, relative to median of negative controls) (log2 ratio); higher = more viable cells (less compound effect), active = hit call of the paper (over 3 MAD below the median)
Settings: treatment time: 72 h
Summary of the method: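 For three days, A673/TR/shEF Ewing sarcoma cells in 384-well plates (1,500 per well) were treated with library compounds at two or more concentrations or with DMSO controls, after doxycycline had been added or withheld 24 h beforehand to induce EWS-FLI1 shRNA knockdown. Viability was read by CellTiter-Glo luminescence on an Envision reader. The data were LOESS-corrected per plate, divided by the median of negative controls and log2-transformed.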

[1] = 0.25 µM, library screen: screen1, EWS-FLI1 expression: high (no doxycycline)
[2] = 0.25 µM, library screen: screen1, EWS-FLI1 expression: low (doxycycline-induced shRNA knockdown)
[3] = 2.5 µM, library screen: screen1, EWS-FLI1 expression: high (no doxycycline)
[4] = 2.5 µM, library screen: screen1, EWS-FLI1 expression: low (doxycycline-induced shRNA knockdown)
[5] = 0.25 µM, library screen: screen2, EWS-FLI1 expression: high (no doxycycline)
[6] = 0.25 µM, library screen: screen2, EWS-FLI1 expression: low (doxycycline-induced shRNA knockdown)
[7] = 2.5 µM, library screen: screen2, EWS-FLI1 expression: high (no doxycycline)
[8] = 2.5 µM, library screen: screen2, EWS-FLI1 expression: low (doxycycline-induced shRNA knockdown)

Measured: cell viability (log2)

CCN1C[C@]2(C)CC[C@H](OC)[C@@]34C1[C@]1(OCO[C@@]15C[C@H](OC)[C@H]1C[C@]3(O)[C@@H]5[C@H]1OC)[C@@H](OC(C)=O)[C@H]24
inactive: [1] 0.0895 | [2] 0.0208 | [3] 0.12 | [4] 0.0444

CC(C)=CCOc1c2occc2cc2ccc(=O)oc12
inactive: [1] 0.059 | [2] 0.0156 | [3] 0.0916 | [4] -0.0403

CN1C[C@H](C(=O)N[C@]2(C)O[C@@]3(O)[C@@H]4CCCN4C(=O)[C@H](Cc4ccccc4)N3C2=O)C[C@@H]2c3cccc4[nH]cc(c34)C[C@H]21
inactive: [1] 0.0326 | [2] -0.00656 | [5] 0.184 | [6] -0.00377 | [3] 0.134 | [4] 0.0537 | [7] 0.0731 | [8] 0.0543

O=C1NCN(c2ccccc2)C12CCN(CC1COc3ccccc3O1)CC2 (stereo not given)
inactive: [5] 0.177 | [6] 0.0806 | [7] 0.104 | [8] 0.0692

CC(C)OC(=O)Nc1cccc(Cl)c1
inactive: [1] 0.0318 | [2] 0.0622 | [3] 0.14 | [4] 0.113

c1ccc2nc(N3CCNCC3)ccc2c1
inactive: [1] 0.0719 | [2] 0.0592 | [5] 0.196 | [6] 0.0365 | [3] 0.0383 | [4] 0.12 | [7] 0.14 | [8] 0.00635

C[N+](C)(C)CCCCCCCCCC[N+](C)(C)C
inactive: [5] 0.191 | [6] 0.0505 | [7] 0.0497 | [8] 0.0976

C=C(C)c1cc2cc(C(C)=O)c(O)cc2o1
inactive: [1] 0.113 | [2] 0.098 | [3] 0.0228 | [4] 0.00912

Cc1c(C(=O)c2cccc3ccccc23)c2cccc3c2n1[C@H](CN1CCOCC1)CO3
inactive: [5] 0.156 | [6] 0.114 | [7] 0.0797 | [8] 0.063

COC(=O)[C@]1(C)CC[C@]2(C)CC[C@]3(C)C4=CCc5c(cc(O)c(O)c5C)[C@]4(C)CC[C@@]3(C)[C@@H]2C1
active: [3] -1.44 | [4] -0.357
inactive: [1] 0.0264 | [2] 0.158

CC(CCc1ccccc1)NC(C)C(O)c1ccc(O)cc1 (stereo not given)
inactive: [1] -0.071 | [2] 0.0658 | [5] 0.181 | [6] 0.0652 | [3] 0.0745 | [4] 0.0738 | [7] 0.119 | [8] -0.0269

CC(=O)OC1CN2CCC1CC2 (stereo not given)
inactive: [1] 0.0435 | [2] 0.00094 | [3] 0.0444 | [4] 0.0838

O=C1C[C@@H]2OCC=C3CN4CC[C@]56c7ccccc7N1[C@H]5[C@H]2[C@H]3C[C@H]46
inactive: [1] 0.102 | [2] 0.0744 | [3] 0.121 | [4] 0.13

CC[C@@]1(O)C(=O)OCc2c1cc1n(c2=O)Cc2cc3ccccc3nc2-1
active: 0.103 µM, library screen: screen3, EWS-FLI1 expression: high (no doxycycline) -1.01 | [1] -2.18 | [2] -0.586 | [5] -2.99 | [6] -0.42 | 0.308 µM, library screen: screen3, EWS-FLI1 expression: high (no doxycycline) -2.37 | 0.308 µM, library screen: screen3, EWS-FLI1 expression: low (doxycycline-induced shRNA knockdown) -0.543 | 0.926 µM, library screen: screen3, EWS-FLI1 expression: high (no doxycycline) -3.61 | 0.926 µM, library screen: screen3, EWS-FLI1 expression: low (doxycycline-induced shRNA knockdown) -0.88 | [3] -1.57 | [4] -0.388 | [7] -3.53 | [8] -0.945 | 2.8 µM, library screen: screen3, EWS-FLI1 expression: high (no doxycycline) -4.24 | 2.8 µM, library screen: screen3, EWS-FLI1 expression: low (doxycycline-induced shRNA knockdown) -1.16 | 8.3 µM, library screen: screen3, EWS-FLI1 expression: high (no doxycycline) -4.26 | 8.3 µM, library screen: screen3, EWS-FLI1 expression: low (doxycycline-induced shRNA knockdown) -1.3 | 25 µM, library screen: screen2, EWS-FLI1 expression: high (no doxycycline) -4.09 | 25 µM, library screen: screen2, EWS-FLI1 expression: low (doxycycline-induced shRNA knockdown) -1.25 | 25 µM, library screen: screen3, EWS-FLI1 expression: high (no doxycycline) -4.26 | 25 µM, library screen: screen3, EWS-FLI1 expression: low (doxycycline-induced shRNA knockdown) -2.33

C[C@]12Cc3cn4c(nc3C=C1CCC1C2CC[C@@]2(C)[C@H]1CC[C@@]2(O)C#N)nc1ccccc14 (stereo not given in full)
inactive: [5] 0.119 | [6] 0.112 | [7] 0.295 | [8] 0.0843

NCCc1cc(O)c(O)cc1O
inactive: [1] 0.0637 | [2] 0.155 | [3] 0.144 | [4] 0.129

C#CCOS(=O)OC1CCCCC1Oc1ccc(C(C)(C)C)cc1 (stereo not given)
inactive: [1] -0.0142 | [2] 0.0922 | [3] 0.0133 | [4] 0.0117

CC(C)=CCC[C@]1(C)C=Cc2c(O)c3c(c(CC=C(C)C)c2O1)O[C@]12C(=C[C@@H]4C[C@H]1C(C)(C)O[C@@]2(C/C=C(/C)C(=O)O)C4=O)C3=O
active: [3] -1.16
inactive: [1] -0.0514 | [2] 0.129 | [4] -0.0142

Clc1cccc(N2CCNCC2)c1
inactive: [5] 0.229 | [6] 0.082 | [7] 0.142 | [8] 0.0632
